Test results taken from the supplement of paper PMC4604168 (melanoma cell lines).
This is one part of the list. Repeats are few or missing, and single values can be far off.

test system: WM3526; test: cell count relative to DMSO control; melanoma cells; higher = more viable cells; details: library dose: standard library concentration; 72 h; first compound 2 µM
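Note: cells treated in 1,536-well plates, then fixed and DAPI-stained, with nuclei counted from automated high-throughput microscope images.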

Q: With `C[C@@H](N)c1ccc(C(=O)Nc2ccnc3[nH]ccc23)cc1` + CO[C@@H]1[C@H](N(C)C(=O)c2ccccc2)C[C@H]2O[C@]1(C)n1c3ccccc3c3c4c(c5c6ccccc6n2c5c31)C(=O)NC4 [Midostaurin] (partner dose 0.4 µM) as the compound, how does the cell count read?
A: The cell count was 82.9%.

Q: With `Cn1sc(=O)n(Cc2ccccc2)c1=O` + Nc1cccc2c1CN(C1CCC(=O)NC1=O)C2=O [lenalidomide] (partner dose 5 µM) as the compound, how does the cell count read?
A: Its cell count is 81.9%.

Q: Which cell count does the source give for `Cn1sc(=O)n(Cc2ccccc2)c1=O` + COc1cc2c(Oc3ccc4[nH]c(C)cc4c3F)ncnc2cc1OCCCN1CCCC1 [cediranib] (partner dose 2 µM) here?
A: Its cell count is 75.2%.

Q: How did the cell count turn out when `C[C@@H](N)c1ccc(C(=O)Nc2ccnc3[nH]ccc23)cc1` + Cn1sc(=O)n(Cc2ccccc2)c1=O [TDZD-8] (partner dose 2 µM) was run?
A: Its cell count is 83.9%.

Q: How did the cell count turn out when `C[C@@H](N)c1ccc(C(=O)Nc2ccnc3[nH]ccc23)cc1` + CC(C)C[C@H](NC(=O)[C@H](Cc1ccccc1)NC(=O)c1cnccn1)B(O)O [Bortezomib] (partner dose 0.005 µM) was run?
A: Its cell count is 19.3%.

Q: For `CCCCCCCCCCCCCCCCCCOP(=O)([O-])OC1CC[N+](C)(C)CC1` [Perifosine] + C#Cc1cccc(Nc2ncnc3cc(OCCOC)c(OCCOC)cc23)c1 [erlotinib] (partner dose 4 µM), which cell count is on record?
A: The cell count was 61.1%.

Q: `Cn1sc(=O)n(Cc2ccccc2)c1=O` + CNC(=O)c1cc(Oc2ccc(NC(=O)Nc3ccc(Cl)c(C(F)(F)F)c3)cc2)ccn1 [sorafenib] (partner dose 2 µM) was tested. Which cell count did it give?
A: Its cell count is 87.1%.

Q: Which cell count does the source give for `CCCCCCCCCCCCCCCCCCOP(=O)([O-])OC1CC[N+](C)(C)CC1` [Perifosine] + C[C@]1(c2nc3c(C(N)=O)cccc3[nH]2)CCCN1 [Veliparib] (partner dose 7 µM) here?
A: Its cell count is 90.1%.

Q: Which cell count does the source give for `Cn1sc(=O)n(Cc2ccccc2)c1=O` + Cc1cc(Nc2cc(N3CCN(C)CC3)nc(/C=C/c3ccccc3)n2)n[nH]1 [ENMD2076] (partner dose 0.2 µM) here?
A: Its cell count is 79.2%.

Q: Which cell count does the source give for `CCCCCCCCCCCCCCCCCCOP(=O)([O-])OC1CC[N+](C)(C)CC1` [Perifosine] + COc1ccc(C2=N[C@@H](c3ccc(Cl)cc3)[C@@H](c3ccc(Cl)cc3)N2C(=O)N2CCNC(=O)C2)c(OC(C)C)c1 [Nutlin-3] (partner dose 0.5 µM) here?
A: Its cell count is 92.6%.

Q: Which cell count does the source give for `Cn1sc(=O)n(Cc2ccccc2)c1=O` + Cn1c(=O)n(-c2ccc(C(C)(C)C#N)cc2)c2c3cc(-c4cnc5ccccc5c4)ccc3ncc21 [NVP-BEZ235] (partner dose 0.02 µM) here?
A: Its cell count is 90.9%.

Q: `C[C@@H](N)c1ccc(C(=O)Nc2ccnc3[nH]ccc23)cc1` + Nc1nc(F)nc2c1ncn2[C@@H]1O[C@H](CO)[C@@H](O)[C@@H]1O [fludarabine] (partner dose 1 µM) was tested. Which cell count did it give?
A: Its cell count is 26%.

Q: How did the cell count turn out when `C[C@@H](N)c1ccc(C(=O)Nc2ccnc3[nH]ccc23)cc1` + O=C(Nc1cccc(Cl)c1)Nc1ncc(CCNc2ncnc3ccsc23)s1 [SNS314] (partner dose 0.004 µM) was run?
A: Its cell count is 81%.

Q: With `Cn1sc(=O)n(Cc2ccccc2)c1=O` + O=C(O)c1ccc2c(c1)nc(Nc1cccc(Cl)c1)c1ccncc12 [CX4945] (partner dose 2 µM) as the compound, how does the cell count read?
A: The cell count was 84.3%.

Q: How did the cell count turn out when `Cn1sc(=O)n(Cc2ccccc2)c1=O` + COc1ccc(Cl)c(Nc2nc3ccccc3nc2NS(=O)(=O)c2cccc(NC(=O)C(C)(C)N)c2)c1 [XL147] (partner dose 4 µM) was run?
A: Its cell count is 98.6%.

Q: Which cell count does the source give for `CCCCCCCCCCCCCCCCCCOP(=O)([O-])OC1CC[N+](C)(C)CC1` [Perifosine] + Cn1nnc2c(C(N)=O)ncn2c1=O [temozolomide] (partner dose 10 µM) here?
A: The cell count was 101%.

Q: Which cell count does the source give for `CCCCCCCCCCCCCCCCCCOP(=O)([O-])OC1CC[N+](C)(C)CC1` [Perifosine] + Clc1ccc(Nc2nnc(Cc3ccncc3)c3ccccc23)cc1 [vatalanib] (partner dose 10 µM) here?
A: Its cell count is 99.2%.

Q: How did the cell count turn out when `C[C@@H](N)c1ccc(C(=O)Nc2ccnc3[nH]ccc23)cc1` + COc1cc(Nc2ncc(F)c(Nc3ccc4c(n3)NC(=O)C(C)(C)O4)n2)cc(OC)c1OC [Tamatinib] (partner dose 2 µM) was run?
A: The cell count was 57.9%.

Q: `C[C@@H](N)c1ccc(C(=O)Nc2ccnc3[nH]ccc23)cc1` + COc1cc2c(Oc3ccc4[nH]c(C)cc4c3F)ncnc2cc1OCCCN1CCCC1 [cediranib] (partner dose 2 µM) was tested. Which cell count did it give?
A: The cell count was 81.6%.

Q: `C[C@@H](N)c1ccc(C(=O)Nc2ccnc3[nH]ccc23)cc1` + CCCCCCCCc1ccc(CCC(N)(CO)CO)cc1 [fingolimod] (partner dose 10 µM) was tested. Which cell count did it give?
A: The cell count was 38.9%.

Q: `Cn1sc(=O)n(Cc2ccccc2)c1=O` + C[C@]1(O)C[C@@H](c2nc(-c3ccc4ccc(-c5ccccc5)nc4c3)c3c(N)nccn32)C1 [OSI906] (partner dose 2 µM) was tested. Which cell count did it give?
A: Its cell count is 129%.

Q: Which cell count does the source give for `Cn1sc(=O)n(Cc2ccccc2)c1=O` + NC(=O)c1ccc(N(C(N)=O)c2c(F)cccc2F)nc1-c1ccc(F)cc1F [VX702] (partner dose 2 µM) here?
A: The cell count was 83.1%.

Q: `C[C@@H](N)c1ccc(C(=O)Nc2ccnc3[nH]ccc23)cc1` + Cn1cnc2c(F)c(Nc3ccc(Br)cc3Cl)c(C(=O)NOCCO)cc21 [selumetinib] (partner dose 0.075 µM) was tested. Which cell count did it give?
A: The cell count was 53.2%.

Q: For `CCCCCCCCCCCCCCCCCCOP(=O)([O-])OC1CC[N+](C)(C)CC1` [Perifosine] + CC(C)C[C@H](NC(=O)[C@H](Cc1ccccc1)NC(=O)c1cnccn1)B(O)O [Bortezomib] (partner dose 0.005 µM), which cell count is on record?
A: Its cell count is 26.1%.

Q: For `C[C@@H](N)c1ccc(C(=O)Nc2ccnc3[nH]ccc23)cc1` + CNC(=O)c1cc(Oc2ccc(NC(=O)Nc3ccc(Cl)c(C(F)(F)F)c3)cc2)ccn1 [sorafenib] (partner dose 2 µM), which cell count is on record?
A: The cell count was 76.5%.

Q: With `CCCCCCCCCCCCCCCCCCOP(=O)([O-])OC1CC[N+](C)(C)CC1` [Perifosine] + C[C@]1(O)C[C@@H](c2nc(-c3ccc4ccc(-c5ccccc5)nc4c3)c3c(N)nccn32)C1 [OSI906] (partner dose 2 µM) as the compound, how does the cell count read?
A: The cell count was 68.5%.

Q: For `CCCCCCCCCCCCCCCCCCOP(=O)([O-])OC1CC[N+](C)(C)CC1` [Perifosine] + NC1(c2ccc(-c3nc4ccn5c(=O)[nH]nc5c4cc3-c3ccccc3)cc2)CCC1 [MK2206] (partner dose 2 µM), which cell count is on record?
A: The cell count was 90.2%.

Q: With `CCCCCCCCCCCCCCCCCCOP(=O)([O-])OC1CC[N+](C)(C)CC1` [Perifosine] + O=c1[nH]nc(Sc2ncc([N+](=O)[O-])s2)n1-c1ccc2c(c1)OCCO2 [BI78D3] (partner dose 1 µM) as the compound, how does the cell count read?
A: The cell count was 118%.

Q: With `C[C@@H](N)c1ccc(C(=O)Nc2ccnc3[nH]ccc23)cc1` + NC1(c2ccc(-c3nc4ccn5c(=O)[nH]nc5c4cc3-c3ccccc3)cc2)CCC1 [MK2206] (partner dose 2 µM) as the compound, how does the cell count read?
A: The cell count was 67.9%.

Q: `CCCCCCCCCCCCCCCCCCOP(=O)([O-])OC1CC[N+](C)(C)CC1` [Perifosine] + Cc1cn(-c2cc(NC(=O)c3ccc(C)c(Nc4nccc(-c5cccnc5)n4)c3)cc(C(F)(F)F)c2)cn1 [nilotinib] (partner dose 1 µM) was tested. Which cell count did it give?
A: Its cell count is 101%.

Q: For `Cn1sc(=O)n(Cc2ccccc2)c1=O` + CN(c1ncccc1CNc1nc(Nc2ccc3c(c2)CC(=O)N3)ncc1C(F)(F)F)S(C)(=O)=O [PF562271] (partner dose 0.4 µM), which cell count is on record?
A: Its cell count is 91.3%.

Q: With `C[C@@H](N)c1ccc(C(=O)Nc2ccnc3[nH]ccc23)cc1` + C=C(c1ccc(C(=O)O)cc1)c1cc2c(cc1C)C(C)(C)CCC2(C)C [Bexarotene] (partner dose 10 µM) as the compound, how does the cell count read?
A: The cell count was 73.3%.

Q: `CCCCCCCCCCCCCCCCCCOP(=O)([O-])OC1CC[N+](C)(C)CC1` [Perifosine] + Cc1cc(Nc2cc(N3CCN(C)CC3)nc(/C=C/c3ccccc3)n2)n[nH]1 [ENMD2076] (partner dose 0.2 µM) was tested. Which cell count did it give?
A: Its cell count is 72.6%.

Q: How did the cell count turn out when `C[C@@H](N)c1ccc(C(=O)Nc2ccnc3[nH]ccc23)cc1` + CN(NC(=O)CC(=O)NN(C)C(=S)c1ccccc1)C(=S)c1ccccc1 [STA4783] (partner dose 0.03 µM) was run?
A: Its cell count is 93.3%.

Q: `Cn1sc(=O)n(Cc2ccccc2)c1=O` + COc1cc(Nc2ncc(F)c(Nc3ccc4c(n3)NC(=O)C(C)(C)O4)n2)cc(OC)c1OC [Tamatinib] (partner dose 2 µM) was tested. Which cell count did it give?
A: The cell count was 79%.

Q: With `CCCCCCCCCCCCCCCCCCOP(=O)([O-])OC1CC[N+](C)(C)CC1` [Perifosine] + OCc1c[nH]c2ccccc12 [Indole-3-carbinol] (partner dose 4 µM) as the compound, how does the cell count read?
A: The cell count was 93%.

Q: `C[C@@H](N)c1ccc(C(=O)Nc2ccnc3[nH]ccc23)cc1` + CS(=O)(=O)CCNCc1ccc(-c2ccc3ncnc(Nc4ccc(OCc5cccc(F)c5)c(Cl)c4)c3c2)o1 [lapatinib] (partner dose 4 µM) was tested. Which cell count did it give?
A: The cell count was 83.5%.

Q: How did the cell count turn out when `Cn1sc(=O)n(Cc2ccccc2)c1=O` + O=C(O)c1ccc(-c2c[nH]c3ncc(-c4ccccc4)cc23)cc1C1CCCC1 [GSK650394] (partner dose 0.8 µM) was run?
A: The cell count was 82.9%.

Q: `Cn1sc(=O)n(Cc2ccccc2)c1=O` + Cn1nnc2c(C(N)=O)ncn2c1=O [temozolomide] (partner dose 10 µM) was tested. Which cell count did it give?
A: The cell count was 95%.
